# From the supplement of paper PMC8728848
# Some of the results follow.
# B1: CVN (Nostoc ellipsosporum), P81180 (protein)
# chain: LGKFSQTCYNSAIQGSVLTSTCERTNGGYNTSSIDLNSVIENVDGSLKWQPSNFIETCRNTQLAGSSELAAECKTRAQQFVSTKINLDDHIANIDGTLKYE
# Assays:
# Assay in all cases: glycan array binding signal (z-score within array); higher = stronger binding
# Settings in all cases: glycan notation: IUPAC condensed, linker removed
# [1] = biological target: Neu5Ac9Ac(a2-3)Gal(b1-4)GlcNAc
# Method in brief: (§1)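 The binding signal is a Z-score computed within each array and averaged over linkers. Arrays of the same protein sequence at different concentrations or buffers were also averaged together. Data originate from 3228 arrays in the Consortium for Functional Glycomics database, kept only where the protein sequence was available.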
# [2] = biological target: Neu5Ac9Ac(a2-6)Gal(b1-4)GlcNAc
# Method in brief: as §1
# [3] = biological target: Neu5Gc(a2-3)Gal(b1-3)GlcNAc
# Method in brief: as §1
# [4] = biological target: Neu5Gc(a2-3)Gal(b1-3)[Fuc(a1-4)]GlcNAc
# Method in brief: as §1
# Neu5Gc(a2-3)Gal(b1-4)Glc = biological target: Neu5Gc(a2-3)Gal(b1-4)Glc
# Method in brief: as §1
# [5] = biological target: Neu5Gc(a2-3)Gal(b1-4)GlcNAc
# Method in brief: as §1
# [6] = biological target: Neu5Gc(a2-3)Gal(b1-4)[Fuc(a1-3)]GlcNAc
# Method in brief: as §1
# [7] = biological target: Neu5Gc(a2-6)Gal(b1-4)GlcNAc
# Method in brief: as §1
# Neu5Gc(a2-6)GalNAc = biological target: Neu5Gc(a2-6)GalNAc
# Method in brief: as §1
# [8] = biological target: Neu5Gc(b2-6)Gal(b1-4)GlcNAc
# Method in brief: as §1
binder,measurement,setting,value
B1,glycan array binding signal (z-score),[1],-0.302
same,glycan array binding signal (z-score),[2],-0.301
same,glycan array binding signal (z-score),[3],-0.298
same,glycan array binding signal (z-score),[4],-0.296
same,glycan array binding signal (z-score),Neu5Gc(a2-3)Gal(b1-4)Glc,-0.298
same,glycan array binding signal (z-score),[5],-0.305
same,glycan array binding signal (z-score),[6],-0.289
same,glycan array binding signal (z-score),[7],-0.3
same,glycan array binding signal (z-score),Neu5Gc(a2-6)GalNAc,-0.308
same,glycan array binding signal (z-score),[8],-0.306
